PMC11383924
Positions count from the first letter of the chain named. Names may count otherwise. Results are given in words; binding and its absence hold for the method and conditions named. Some results given as binding are weak or reduced against the parent protein; the word gives no strength. For part of these data: Sequences can lack the tags named with a protein. Values belong to the binder of their own block, whether it stands above or below them.

Key:
Assay in all cases: two-hybrid; bacterial two-hybrid (BACTH): T18 and T25 fusions of CyaA co-expressed in E. coli BTH101; LB plates with X-Gal and 0.5 mM IPTG, up to 36 h at 28 °C; blue colonies indicate an interaction
[1] = target: T1, Fur, global regulator for iron homoeostasis (Bacillus subtilis) (UniProt P54574)
T1 sequence: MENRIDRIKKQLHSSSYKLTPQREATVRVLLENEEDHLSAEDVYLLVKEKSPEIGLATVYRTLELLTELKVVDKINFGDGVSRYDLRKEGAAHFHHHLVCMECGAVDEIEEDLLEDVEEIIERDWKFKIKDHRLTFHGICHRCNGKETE

[2] = target: T2, Fpa (Fur protein antagonist), formerly YlaN (Bacillus subtilis) (UniProt O07638)
T2 sequence: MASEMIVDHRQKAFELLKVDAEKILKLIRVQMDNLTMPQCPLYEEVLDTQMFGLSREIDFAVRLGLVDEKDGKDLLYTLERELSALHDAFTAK

[3] = target: mutant Fur (Fur*, K18A R23E Y60E) (Bacillus subtilis) (UniProt P54574)

binding [1]: binds
binding [2]: binds
B1: Fpa (Fur protein antagonist), formerly YlaN (protein, UniProt O07638 1-93)
chain: T2 sequence

binding [1]: binds
B2: Fur, global regulator for iron homoeostasis (protein, UniProt P54574 1-149)
chain: T1 sequence

binding [1]: binds
binding [2]: no binding
binding [3]: binds
B3: mutant Fur (Fur*, K18A R23E Y60E) (protein, UniProt P54574 1-149)
chain: T1 sequence with K18A, R23E, Y60E
